PubChem BioAssay AID624173 (National Center for Advancing Translational Sciences (NCATS), 2012)
Screen size: about 410,000 compounds; about 490 (0.12%) were called active. The shares of active, inactive and inconclusive entries below differ from those in the screen. Calls follow the shape of the dose curve; as a rule, active = well fitted inhibition curve with a large enough effect; inconclusive = small, poorly fitted or top-dose-only effect; inactive = flat fitted curve, though single readings scatter. Where the call is inconclusive, the potency comes from a doubtful curve fit.

Target: pyruvate kinase (Trypanosoma brucei) (UniProt Q57TT1)
Test: qHTS of Trypanosoma Brucei Inhibitors; also: nearly all actives have a fitted effect of over 50% in size
Conditions: TbPYK enzyme, Kinase-Glo Plus ATP luminescence, 45 min; series mostly up to 76.8 µM; activity, negative = inhibition: at the top concentration
Outline: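 In this concentration-response screen, enzyme-free wells defined baseline while DMSO plates tracked drift. Each reaction combined TbPYK, substrate, compound and 130 uM ADP for 45 min at room temperature. Kinase-Glo Plus luminescence gave the signal.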
% is scaled to controls: 0 for no effect and ±100 for the full control effect; potency is read from the fitted curve at half-maximal effect; tags tell the direction and shape of the fitted curve.

Structure (SMILES) | Potency | activity, negative = inhibition
Cc1ccc(-n2c(SCC(=O)Nc3ccc4c(c3)OCO4)nnc2-c2cccs2)cc1 | inconclusive: 12.6 µM [inhibitor, partial curve] | 
Cc1nc(Nc2nc3ccccc3o2)nc(C)c1C | inconclusive: 14.1 µM [inhibitor, partial curve, poor fit] | 
COc1cc(/C=N/n2c(-c3cc(C)[nH]n3)n[nH]c2=S)cc(OC)c1OC | inconclusive: 2.82 µM [inhibitor, full curve] | 
CCNC(=S)NNC(=O)c1cccn(Cc2ccc(Cl)cc2Cl)c1=O | inconclusive: 25.1 µM [inhibitor, partial curve, poor fit] | 
O=[N+]([O-])c1ccc(Sc2cccc[n+]2[O-])c2nonc12 | active: 17.8 µM | 
CC(=O)Nc1ccc(S(=O)(=O)N2CCC(NC(=O)C(Cc3cccn3C)NC(C)=O)CC2)cc1 (stereo not given) | inconclusive: 39.8 µM [inhibitor, single point] | 
CCOC(=O)c1nc(NCc2ccccc2)sc1C | inconclusive: 15.8 µM [inhibitor, partial curve, poor fit] | 
COC(=O)c1c(NC(=O)CSc2nc3ccccc3c(=O)n2Cc2ccco2)sc(C)c1C |  | inactive: -0.158%
CCOC(=O)CNC(=O)CSc1nnc(-c2ccco2)n1Cc1ccco1 | inconclusive: 12.6 µM [inhibitor, partial curve, poor fit] | 
Cc1cc(N(CCO)CCO)ccc1C(c1ccc(N(CCO)CCO)cc1C)c1ccccc1Cl | inconclusive: 22.4 µM [inhibitor, partial curve] | 
S=c1[nH]nc(CCSCc2ccccc2)n1-c1ccccc1 | active: 5.62 µM | 
Cc1ccc(C2=NN(C(=O)c3cccs3)C(c3ccccc3O)C2)cc1 (stereo not given) |  | inactive: -6.38%
S=c1[nH]c(-c2ccc(Cl)cc2)cs1 | inconclusive: 7.94 µM [inhibitor, partial curve, poor fit] | 
C=C1c2cccc(O)c2C(O)=C2C(=O)[C@]3(O)C(O)=C(C(N)=O)C(=O)[C@@H](N(C)C)[C@@H]3[C@@H](O)[C@H]12 | inconclusive: 35.5 µM [inhibitor, single point] | 
Cc1ccccc1Nc1nc(N)c2ccccc2n1 | inconclusive: 25.1 µM [inhibitor, partial curve] | 
CC1=C(C(=O)OC(C)(C)C)C(c2ccco2)C(C#N)=C(N)O1 (stereo not given) | inconclusive: 39.8 µM [inhibitor, single point] | 
O=C(CSc1nncn1-c1ccccc1)Nc1ccc(N2CCOCC2)cc1 | inconclusive: 39.8 µM [inhibitor, single point] | 
COCCN(CC(=O)NC1CCCCC1)C(=O)/C=C/C(=O)c1ccc(OC)cc1O | inconclusive: 22.4 µM [inhibitor, partial curve] | 
CN(C)c1ccc(C(=S)N2CCN(c3ccc([N+](=O)[O-])cc3)CC2)cc1 | inconclusive: 28.2 µM [inhibitor, partial curve] | 
O=C(/C=C/c1ccco1)N1CCc2ccccc21 | inconclusive: 20 µM [inhibitor, partial curve] | 
CCc1ccc(S(=O)(=O)N/N=C\c2ccc([N+](=O)[O-])o2)cc1 | inconclusive: 35.5 µM [inhibitor, single point] | 
CCC(=O)OCC(=O)[C@@]1(OC(=O)CC)[C@H](C)C[C@@H]2[C@@H]3[C@H]([C@@H](O)C[C@@]21C)[C@]1(C)C=CC(=O)C=C1C[C@@H]3Cl |  | inactive: 2.25% [at 33.2 µM]
COc1ccc(S(=O)(=O)N2CC(C)N(C(=O)N3CCOCC3)C2)cc1 (stereo not given) |  | inactive: 0.79%
O=C(Cc1ccc(Cl)cc1)Nc1ccc(NC(=O)c2ccccc2)cc1 |  | inactive: 1.76%

Structure (SMILES) | Potency | activity, negative = inhibition
COc1ccccc1CNc1ccc(Br)cn1 | inconclusive: 44.7 µM [inhibitor, single point] | 
O=C(c1ccc(-c2nc3ccccc3s2)s1)N1CCOCC1 | inconclusive: 31.6 µM [inhibitor, partial curve, poor fit] | 
COc1ccc(/C=N/Nc2nncc3ccccc23)cc1 | inconclusive: 10 µM [inhibitor, partial curve] | 
C#CCOC(=O)CCCN1C(=O)c2cccc3cccc(c23)C1=O |  | inactive: -6.65%
O=C(Nc1nc(-c2ccccn2)cs1)c1ccccc1-n1cnnn1 | inconclusive: 44.7 µM [inhibitor, single point] | 
O=C(N/N=C/c1ccc(N2CCCCC2)o1)c1ccccc1 | active: 22.4 µM | 
C=CCn1c(-c2ccc([N+](=O)[O-])cc2)n[nH]c1=S | inconclusive: 6.31 µM [inhibitor, full curve] | 
S=c1[nH]nc(-c2ccc(Br)cc2)n1Cc1ccco1 | active: 5.62 µM | 
O=C(NC1=C(NC2CCS(=O)(=O)C2)C(=O)c2ccccc2C1=O)c1ccccc1 (stereo not given) |  | inactive: -22%
COc1ccc(CNC(=O)NC2CCCCC2)cc1 |  | inactive: 11.3%
O=C(OCCNc1ccc(C(F)(F)F)cc1[N+](=O)[O-])c1cc2ccccc2oc1=O |  | inactive: 0.0154%
Cc1nc2ccc(C(=O)c3ccccc3)cc2[nH]1 | inconclusive: 7.08 µM [inhibitor, full curve] | 
CCCCN(C)C(=O)c1[nH]c(C(F)(F)F)nc1-c1ccccc1 |  | inactive: 3.07%
O=C(O)c1ccc(N/N=C/c2ccc3c(c2)OCO3)cc1 | inconclusive: 25.1 µM [inhibitor, partial curve, poor fit] | 
COc1ccccc1CNC(=O)Cc1csc2nc(-c3ccc(F)cc3)cn12 |  | inactive: 1.25%
O=C(CN1CCN(c2ccc(O)cc2)CC1)Nc1cc(S(=O)(=O)N2CCOCC2)ccc1Cl | inconclusive: 35.5 µM [inhibitor, partial curve, poor fit] | 
CC(C)(C)c1ccc(C(=O)CSc2ncn[nH]2)cc1 | inconclusive: 31.6 µM [inhibitor, single point] | 
Cc1ccc(-n2c(Cc3cccc4ccccc34)n[nH]c2=S)c(C)c1 | inconclusive: 17.8 µM [inhibitor, partial curve, poor fit] | 
O=C(Cc1ccc(-c2ccccc2)cc1)NCCS(=O)(=O)N1CCN(c2ccc(F)cc2)CC1 |  | inactive: -6.35%
CCc1nc(SCC(=O)c2cc(C)ccc2C)n[nH]1 | inconclusive: 50.1 µM [inhibitor, single point] | 
COC(=O)Cn1cnc2c(cnn2-c2ccccc2)c1=O |  | inactive: -0.62%
O=C(/C=C/c1ccccc1)c1cc(Br)ccc(=O)c1O | inconclusive: 22.4 µM [inhibitor, partial curve, poor fit] | 
Cc1ccc(S(=O)(=O)N/N=C/c2cccs2)cc1 |  | inactive: -5.74%
NNC(=O)CNC(=O)c1ccccc1F |  | inactive: 0.671%

Structure (SMILES) | Potency | activity, negative = inhibition
CCCN(CCC)C(=O)c1ccc2c(=O)n(Cc3ccco3)c(=S)[nH]c2c1 | inconclusive: 35.5 µM [inhibitor, single point] | 
Oc1ccc(/C=N/N=C(c2ccccc2)c2ccccc2)c(O)c1O | inconclusive: 20 µM [inhibitor, partial curve] | 
Cc1occc1C(=O)O/N=C(\N)c1ccccc1 | inconclusive: 25.1 µM [inhibitor, partial curve] | 
CC1=CC(C)(C)NC(=S)N1c1cccc2cc(S(=O)(=O)O)ccc12 | inconclusive: 28.2 µM [inhibitor, partial curve, poor fit] | 
Cc1nn(Cc2n[nH]c(=S)n2Cc2ccccc2)c(C)c1Cl | inconclusive: 3.55 µM [inhibitor, partial curve, poor fit] | 
S=c1[nH]ncn1/N=C/c1ccc(Br)cc1 | inconclusive: 1.12 µM [inhibitor, full curve, poor fit] | 
Cc1ccc(-n2c(Cc3ccccc3)n[nH]c2=S)cc1 | inconclusive: 7.94 µM [inhibitor, partial curve, poor fit] | 
CCc1cccc(NC(=O)Cn2c(C(=O)OC)cc3sc(Cl)cc32)c1 |  | inactive: 1.86%
Cc1ccc(S(=O)(=O)n2nc(OC(=O)c3c(F)cccc3Cl)cc2N)cc1 | inconclusive: 31.6 µM [inhibitor, single point] | 
Cn1cnnc1SCC(=O)Nc1ccc2c(c1)CCC2 |  | inactive: 6.75%
C=CCN=c1scc(C)n1/N=C/c1ccc(O)c(O)c1 | inconclusive: 15.8 µM [inhibitor, partial curve, poor fit] | 
O=C(Nc1ccccc1F)C1CCCN(S(=O)(=O)c2ccccc2)C1 (stereo not given) | inconclusive: 35.5 µM [inhibitor, single point] | 
C=CCOc1c(Br)cc(/C=N/n2c(CC)n[nH]c2=S)cc1Br | inconclusive: 2.24 µM [inhibitor, full curve, poor fit] | 
O=[N+]([O-])c1ccccc1-c1ccc(C(=S)N2CCCC2)o1 | inconclusive: 28.2 µM [inhibitor, partial curve, poor fit] | 
Cc1cc(CN2CCCC(C(=O)Nc3ccc(-c4nc5ccccc5[nH]4)cc3)C2)n[nH]1 (stereo not given) |  | inactive: 12.3%
CCOc1ccccc1CN1CCN(Cc2ccc3cc(F)ccc3n2)CC1CCO (stereo not given) |  | inactive: -5.05%
CC(C)n1c(-c2ccc(C(C)(C)C)cc2)n[nH]c1=S | inconclusive: 12.6 µM [inhibitor, partial curve, poor fit] | 
CCn1cc(C2=NC(C(C)C)CO2)c2ccccc21 (stereo not given) |  | inactive: 0.911%
CSc1nnc(-c2ccco2)c(-c2ccco2)n1 | inconclusive: 12.6 µM [inhibitor, partial curve, poor fit] | 
CCOC(=O)C1=C(CN2CCN(c3ccc(OC)cc3)CC2)NC(=O)NC1c1ccc(OC)cc1 (stereo not given) |  | inactive: -2%
O=c1cc(CN2CCN(c3ccc(O)cc3)CC2)nc2scc(-c3ccccc3)n12 | inconclusive: 35.5 µM [inhibitor, single point] | 
O=C(O)c1ccccc1-c1ccc(/C=c2\sc3nc4cc(Br)cnc4n3c2=O)o1 | inconclusive: 39.8 µM [inhibitor, single point] | 
